# The BET-seq Pho4 binding data (Le et al. 2018)
# This is one part of the list. These are noisy estimates, calculated here from bound and input reads.
# Molecular target: T1, Pho4 (S. cerevisiae) (UniProt P07270)
# T1 sequence: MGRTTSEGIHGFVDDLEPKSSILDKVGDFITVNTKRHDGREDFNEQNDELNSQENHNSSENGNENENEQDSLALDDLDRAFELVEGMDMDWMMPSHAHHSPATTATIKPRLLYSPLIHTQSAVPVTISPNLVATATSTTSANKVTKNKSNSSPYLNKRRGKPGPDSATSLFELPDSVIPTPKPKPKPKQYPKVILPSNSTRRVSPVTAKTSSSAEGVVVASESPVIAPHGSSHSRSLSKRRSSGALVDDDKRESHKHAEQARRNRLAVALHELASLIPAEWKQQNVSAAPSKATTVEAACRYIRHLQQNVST
# Test: relative binding free energy (BET-seq); higher = weaker binding
# Settings: reference: library average
row,Sequence,relative binding free energy
1,ATGAGCACGTGGGGAC,-0.23 kcal/mol
2,TGTGTCACGTGGTAAC,0.07 kcal/mol
3,TTCGGCACGTGAATGA,0.17 kcal/mol
4,TAGATCACGTGGATTA,0.11 kcal/mol
5,GGATTCACGTGACGTT,0.49 kcal/mol
6,TAATTCACGTGGATTT,0.21 kcal/mol
7,ATGGTCACGTGGTGCT,-0.03 kcal/mol
8,GTTCACACGTGTAGGA,0.22 kcal/mol
9,GTTGCCACGTGTTGAT,-0.09 kcal/mol
10,AGTTTCACGTGTTGCT,0.18 kcal/mol
11,AATTACACGTGTTGGG,0.12 kcal/mol
12,TGGCACACGTGGTATG,-0.01 kcal/mol
13,TGTGCCACGTGTGGAA,-0.05 kcal/mol
14,GGGTACACGTGATGGC,0.22 kcal/mol
15,CCTGTCACGTGGGGCT,-0.01 kcal/mol
16,TAGAACACGTGTGGGC,0.06 kcal/mol
17,TTTGCCACGTGTCTTG,-0.13 kcal/mol
18,ATTTCCACGTGTTGAG,0.07 kcal/mol
19,GCGGTCACGTGTTGCG,0.05 kcal/mol
20,CTGGGCACGTGCGGGG,-0.15 kcal/mol
21,TGATTCACGTGTCTGA,0.22 kcal/mol
22,CTCTGCACGTGGGTTA,-0.13 kcal/mol
23,TTGTCCACGTGAGCTT,0.42 kcal/mol

row,Sequence,relative binding free energy
1,GCTTGCACGTGGCTTG,0.05 kcal/mol
2,GAATTCACGTGCGGTA,0.24 kcal/mol
3,ATTCACACGTGTGTGG,0.18 kcal/mol
4,AGTGGCACGTGCGTTT,-0.15 kcal/mol
5,TATTGCACGTGTTTTC,0.13 kcal/mol
6,GTTAACACGTGGCGAG,0.08 kcal/mol
7,GGGGGCACGTGGAGCT,-0.1 kcal/mol
8,AATGTCACGTGCGTGT,0.08 kcal/mol
9,GATTTCACGTGGTGCT,0.21 kcal/mol
10,GGGTGCACGTGATGTT,0.19 kcal/mol
11,AGTTTCACGTGATCGG,0.34 kcal/mol
12,GGATGCACGTGTTGGA,0.02 kcal/mol
13,AATTTCACGTGTTTTT,0.18 kcal/mol
14,TTCGTCACGTGTCAGT,0.1 kcal/mol
15,AGATGCACGTGGAGGC,-0.19 kcal/mol
16,GTAGTCACGTGGGATT,0.11 kcal/mol
17,GAGGTCACGTGGTGGG,0.25 kcal/mol
18,AGTTTCACGTGTGAGA,0.32 kcal/mol
19,GGTCACACGTGTTCTG,0.29 kcal/mol
20,GGGGTCACGTGAGAAA,0.5 kcal/mol
21,ATAGGCACGTGCCTTG,-0.15 kcal/mol
22,GGGAGCACGTGGGTTA,-0.21 kcal/mol
23,GGGGGCACGTGAGCTT,0.16 kcal/mol

row,Sequence,relative binding free energy
1,TTCAACACGTGGTATT,-0.07 kcal/mol
2,TTGGGCACGTGGTCTC,-0.23 kcal/mol
3,CTTGTCACGTGTTGGG,0.19 kcal/mol
4,TATGTCACGTGGAGCG,0.03 kcal/mol
5,TATGGCACGTGTGGTT,0.01 kcal/mol
6,ATCTTCACGTGTTGGA,0.23 kcal/mol
7,TGGATCACGTGACTTT,0.24 kcal/mol
8,ATAGACACGTGGGGGG,-0.08 kcal/mol
9,TAGGGCACGTGGTTGA,-0.18 kcal/mol
10,TTCGGCACGTGTTGAA,0 kcal/mol
11,AATAACACGTGTTTTG,-0.03 kcal/mol
12,ATCTTCACGTGTATAT,0.37 kcal/mol
13,TTGATCACGTGGTCCG,0.17 kcal/mol
14,TTAAGCACGTGCTGTG,-0.23 kcal/mol
15,TTGTGCACGTGTGCTT,0.01 kcal/mol
16,GAGTTCACGTGAGCGG,0.58 kcal/mol
17,TTTGGCACGTGACGTG,-0.04 kcal/mol
18,TTTGTCACGTGGATTG,0.13 kcal/mol
19,TTTGTCACGTGAGCAT,0.16 kcal/mol
20,TCGAGCACGTGGGATG,-0.22 kcal/mol
21,CGTTGCACGTGTAGTT,0.12 kcal/mol
22,CATTGCACGTGGTCGG,-0.1 kcal/mol
23,TAAAGCACGTGTGGGT,-0.15 kcal/mol

row,Sequence,relative binding free energy
1,TGATTCACGTGTATAT,0.33 kcal/mol
2,TTAGTCACGTGGACGT,0.11 kcal/mol
3,TTTAACACGTGATTTG,0.17 kcal/mol
4,CTGTTCACGTGAGGGC,0.28 kcal/mol
5,GCGTTCACGTGAGGGG,0.42 kcal/mol
6,GCTGACACGTGGGGGC,-0.05 kcal/mol
7,TGACTCACGTGGGCGT,0.03 kcal/mol
8,GGGGACACGTGCAGGG,0.01 kcal/mol
9,TAGGTCACGTGTGCGC,0.15 kcal/mol
10,TTTATCACGTGTGCAG,0.05 kcal/mol
11,TTTTGCACGTGAGCTA,0.27 kcal/mol
12,TGAAGCACGTGGGTTA,-0.2 kcal/mol
13,TAAGTCACGTGACATG,0.21 kcal/mol
14,GTTGACACGTGGCTAG,0.13 kcal/mol
15,GGTCGCACGTGAGTGT,0.09 kcal/mol
16,ATTTTCACGTGGGCCA,0.21 kcal/mol
17,TGTGTCACGTGCTCGG,0.03 kcal/mol
18,TGGGTCACGTGGCGAG,0.05 kcal/mol
19,GAGTTCACGTGGAGCG,0.38 kcal/mol
20,TTCTACACGTGGGTCG,0.1 kcal/mol
21,ATTATCACGTGAAATG,0.32 kcal/mol
22,GTTTGCACGTGGAATA,0.14 kcal/mol
23,ATTAACACGTGGTGCG,-0.14 kcal/mol

row,Sequence,relative binding free energy
1,CATTGCACGTGTTATG,0.07 kcal/mol
2,AGGACCACGTGGTAGG,-0.2 kcal/mol
3,TAATGCACGTGAATTT,0.09 kcal/mol
4,GAATGCACGTGAGGTT,0.33 kcal/mol
5,ACTGACACGTGTGTGA,0.1 kcal/mol
6,ATGTGCACGTGGATAA,-0.06 kcal/mol
7,GGTTGCACGTGGTCGC,-0.17 kcal/mol
8,GCTTTCACGTGCGGGT,0.23 kcal/mol
9,AATAGCACGTGAGGTA,0.12 kcal/mol
10,ACGGGCACGTGAAGGT,-0.01 kcal/mol
11,GAGTTCACGTGTGAGT,0.47 kcal/mol
12,GGGATCACGTGGGTCG,0.08 kcal/mol
13,CTGGTCACGTGATTTG,0.18 kcal/mol
14,AAGTTCACGTGATGCT,0.34 kcal/mol
15,TGAGGCACGTGTGGTA,0.08 kcal/mol
16,CTTAACACGTGGTGGT,-0.2 kcal/mol
17,GTCGGCACGTGAGGTC,0.24 kcal/mol
18,TTTGTCACGTGAATGA,0.26 kcal/mol
19,GTCATCACGTGTGTGG,0.26 kcal/mol
20,AGAGACACGTGTTGCT,0.13 kcal/mol
21,GCTGTCACGTGGAGTG,0.07 kcal/mol
22,GGTAACACGTGGCAGG,-0.16 kcal/mol
23,TTGGGCACGTGTCAAA,0 kcal/mol
